Assay results reported in the supplement of paper PMC4466236.
In all, about 33,000 sequences were measured (“E-score (dimensionless, -0.5 to 0.5)”: median about -0.058, highest 2% from about 0.35 on). This is one part of the list.

Each sequence was assayed on MvaT (assay: PBM 8-mer E-score (mean of HK and ME arrays) (E-score (dimensionless, -0.5 to 0.5)); higher = stronger relative binding preference; most listed sequences are background and not binding sites).
Method in brief: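 Full-length P. aeruginosa MvaT, with glutathione S-transferase fused to its N-terminus (cloned into pTH6838 by isothermal assembly), was tested by protein binding microarray using a previously described protocol. Two universal double-stranded 60-mer arrays (ME and HK) were used, each with a constant 25-mer primer region and a variable 35-mer region covering all 8-mers. The rank-based 8-mer E-score (-0.5 to 0.5) is the mean of the two arrays, parsed with a custom Python script.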
In the case of CCTGCGCA, the “PBM 8-mer E-score” value is reported as -0.121. For CAGGCCCA, the “PBM 8-mer E-score” value was -0.231. In the case of AGATGTGA, the “PBM 8-mer E-score” value is reported as -0.0635. With AAGCAATT the “PBM 8-mer E-score” value was 0.161. In the case of TATGAAGA, the “PBM 8-mer E-score” value is reported as 0.182. With GCATTTTA the “PBM 8-mer E-score” value was 0.177. With CGTGTGAG the “PBM 8-mer E-score” value was -0.275. GAATGATA was tested, and the “PBM 8-mer E-score” value was 0.133. For AAAACTCA, the “PBM 8-mer E-score” value was 0.0646. ACGGCACT was tested, and the “PBM 8-mer E-score” value was -0.186. With CATCGACC the “PBM 8-mer E-score” value was -0.216. For ATTTATCC, the “PBM 8-mer E-score” value was 0.286. For TAAAATTA, the “PBM 8-mer E-score” value was 0.288. In the case of AGAACCCG, the “PBM 8-mer E-score” value is reported as -0.221. CCTTACGA was tested, and the “PBM 8-mer E-score” value was -0.0553. ATCTCTAA was tested, and the “PBM 8-mer E-score” value was -0.0417. In the case of TCATAACA, the “PBM 8-mer E-score” value is reported as 0.0779. ACAGATCA was tested, and the “PBM 8-mer E-score” value was -0.00269. For GGCGTGGA, the “PBM 8-mer E-score” value was -0.173. In the case of CACTCTCA, the “PBM 8-mer E-score” value is reported as -0.183. With GAAATTAA the “PBM 8-mer E-score” value was 0.331. CACATAGA was tested, and the “PBM 8-mer E-score” value was 0.179. CACAGACC was tested, and the “PBM 8-mer E-score” value was -0.233. In the case of AATCTAGC, the “PBM 8-mer E-score” value is reported as -0.0252. GCATCAGC was tested, and the “PBM 8-mer E-score” value was -0.135. With TAGCATCA the “PBM 8-mer E-score” value was 0.0156. TCCCAAAA was tested, and the “PBM 8-mer E-score” value was -0.00576. With CTCCGTTC the “PBM 8-mer E-score” value was -0.179. For ACGGCCAA, the “PBM 8-mer E-score” value was 0.0217. AGCAACTC was tested, and the “PBM 8-mer E-score” value was -0.0122. CGTCTCGC was tested, and the “PBM 8-mer E-score” value was -0.228. With AATCTGAA the “PBM 8-mer E-score” value was 0.179. CAAGCAGG was tested, and the “PBM 8-mer E-score” value was -0.0598. In the case of CTACCACC, the “PBM 8-mer E-score” value is reported as -0.0603. For GTGACCCA, the “PBM 8-mer E-score” value was -0.143. In the case of CGTGCACG, the “PBM 8-mer E-score” value is reported as 0.0125. ATCCGCGG was tested, and the “PBM 8-mer E-score” value was -0.105. With CCACCACC the “PBM 8-mer E-score” value was -0.0649. With AATTGAAT the “PBM 8-mer E-score” value was 0.286. CGACCACC was tested, and the “PBM 8-mer E-score” value was -0.189. In the case of GATGTTTA, the “PBM 8-mer E-score” value is reported as 0.256. With ATAATAGA the “PBM 8-mer E-score” value was 0.364. For AATCGAGT, the “PBM 8-mer E-score” value was 0.0187. CATACATA was tested, and the “PBM 8-mer E-score” value was 0.277. AGACAGGC was tested, and the “PBM 8-mer E-score” value was -0.0933. In the case of AAGGTCCT, the “PBM 8-mer E-score” value is reported as -0.131. ATACACGA was tested, and the “PBM 8-mer E-score” value was 0.125. For AGTGTTCG, the “PBM 8-mer E-score” value was -0.0659. For AATAACGA, the “PBM 8-mer E-score” value was 0.326. With CGATACCC the “PBM 8-mer E-score” value was -0.141. GAAGAGTC was tested, and the “PBM 8-mer E-score” value was -0.211. CCCTGATA was tested, and the “PBM 8-mer E-score” value was -0.0808. With ACGAGGGC the “PBM 8-mer E-score” value was -0.308. GCCTCATA was tested, and the “PBM 8-mer E-score” value was -0.1. In the case of AGTAATCC, the “PBM 8-mer E-score” value is reported as -0.0578. For AGGGCGAG, the “PBM 8-mer E-score” value was -0.108. In the case of ATGTTAAA, the “PBM 8-mer E-score” value is reported as 0.329. With CATTGCCC the “PBM 8-mer E-score” value was -0.0645. In the case of ACGGATGG, the “PBM 8-mer E-score” value is reported as -0.194. GACAGCAA was tested, and the “PBM 8-mer E-score” value was 0.0964. With ACTGGTCG the “PBM 8-mer E-score” value was -0.218. CTGGACCC was tested, and the “PBM 8-mer E-score” value was -0.285. For ACGATCTA, the “PBM 8-mer E-score” value was 0.0186. For ACTCAAGC, the “PBM 8-mer E-score” value was -0.0815. In the case of GATCGCAC, the “PBM 8-mer E-score” value is reported as -0.108. With CGGTAAAG the “PBM 8-mer E-score” value was 0.00449. With GATGTAGC the “PBM 8-mer E-score” value was -0.189. In the case of GGAAGTCC, the “PBM 8-mer E-score” value is reported as -0.341. In the case of ATCAGACC, the “PBM 8-mer E-score” value is reported as -0.155. AATATGCA was tested, and the “PBM 8-mer E-score” value was 0.264. For AATGAGCT, the “PBM 8-mer E-score” value was -0.164. ATCGCAAC was tested, and the “PBM 8-mer E-score” value was 0.0331. In the case of TCTCACAA, the “PBM 8-mer E-score” value is reported as -0.0526. AAAGGCTC was tested, and the “PBM 8-mer E-score” value was -0.23. ACCTCTTA was tested, and the “PBM 8-mer E-score” value was 0.0241. In the case of CAGTTGGA, the “PBM 8-mer E-score” value is reported as -0.14. In the case of GACTATCA, the “PBM 8-mer E-score” value is reported as -0.0497. In the case of CGTCGATA, the “PBM 8-mer E-score” value is reported as 0.143. In the case of ATCAAAAC, the “PBM 8-mer E-score” value is reported as 0.106. In the case of CTGATTCA, the “PBM 8-mer E-score” value is reported as -0.00428. With GGCTTCCC the “PBM 8-mer E-score” value was -0.266. In the case of AGGTCGAT, the “PBM 8-mer E-score” value is reported as -0.211. In the case of GATACGAC, the “PBM 8-mer E-score” value is reported as -0.0549. For ATCCGCCA, the “PBM 8-mer E-score” value was 0.0248. With GATATCGA the “PBM 8-mer E-score” value was 0.0484. With GAACCAAC the “PBM 8-mer E-score” value was -0.0644. ACTCTTAG was tested, and the “PBM 8-mer E-score” value was 0.0697. With GATCTCCA the “PBM 8-mer E-score” value was -0.11. AAGAATCT was tested, and the “PBM 8-mer E-score” value was -0.0428. In the case of GACACCCA, the “PBM 8-mer E-score” value is reported as -0.167. GGGCCAGA was tested, and the “PBM 8-mer E-score” value was -0.297. ACGTTCAT was tested, and the “PBM 8-mer E-score” value was -0.0924. With AAGTCACA the “PBM 8-mer E-score” value was -0.0046. CAAACGCC was tested, and the “PBM 8-mer E-score” value was -0.216.
